# Measurements as given in the supplement of paper PMC4604168 (melanoma cell lines).
# Some of the results follow. Repeats are few or missing, and single values can be far off.
# What was measured:
# Test in all cases: cell count relative to DMSO control; melanoma cells; higher = more viable cells
# Conditions in all cases: library dose: standard library concentration; 72 h
# G361 = tested on: G361
# IPC-298 = tested on: IPC-298
# IST-MEL1 = tested on: IST-MEL1
# LB2518-MEL = tested on: LB2518-MEL
# LOXIMVI = tested on: LOXIMVI
# MEL-HO = tested on: MEL-HO
# MZ2-MEL = tested on: MZ2-MEL
# MeWo = tested on: MeWo
# RPMI7951 = tested on: RPMI7951
# RVH-421 = tested on: RVH-421
# SkMel28 = tested on: SkMel28
# SkMel2 = tested on: SkMel2
# SkMel30 = tested on: SkMel30
# SkMel5 = tested on: SkMel5
# UACC257 = tested on: UACC257
# UACC62 = tested on: UACC62
# WM115 = tested on: WM115
# WM1716 = tested on: WM1716
# WM3526 = tested on: WM3526
# WM1745 = tested on: WM1745
# 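Further: cells treated in 1,536-well plates, then fixed and DAPI-stained, with nuclei counted from automated high-throughput microscope images.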
SMILES,cell count (G361) [%],cell count (IPC-298) [%],cell count (IST-MEL1) [%],cell count (LB2518-MEL) [%],cell count (LOXIMVI) [%],cell count (MEL-HO) [%],cell count (MZ2-MEL) [%],cell count (MeWo) [%],cell count (RPMI7951) [%],cell count (RVH-421) [%],cell count (SkMel28) [%],cell count (SkMel2) [%],cell count (SkMel30) [%],cell count (SkMel5) [%],cell count (UACC257) [%],cell count (UACC62) [%],cell count (WM115) [%],cell count (WM1716) [%],cell count (WM3526) [%],cell count (WM1745) [%]
"CO[C@H]1C[C@@H]2CC[C@@H](C)[C@@](O)(O2)C(=O)C(=O)N2CCCC[C@H]2C(=O)O[C@H]([C@H](C)C[C@@H]2CC[C@@H](OCCO)[C@H](OC)C2)CC(=O)[C@H](C)/C=C(\C)[C@@H](O)[C@@H](OC)C(=O)[C@H](C)C[C@H](C)/C=C/C=C/C=C/1C [everolimus] + O=C(Nc1ccccc1)c1cc([N+](=O)[O-])ccc1Cl [GW9662] (first compound 0.1 µM, partner dose 10 µM)",59.7,73.5,87.3,65.4,138,71.1,73.3,62.6,69.9,70.7,36.8,61.4,56.1,63.2,72.4,87,83.2,72.9,71.2,–
"Nc1ccn([C@@H]2O[C@H](CO)[C@@H](O)C2(F)F)c(=O)n1 [gemcitabine] + Cc1ccc(NC(=O)c2cccc(N(C)C)c2)cc1NC(=O)c1ccc(O)cc1 [ZM336372] (first compound 0.002 µM, partner dose 10 µM)",67.5,57.7,45.9,91.9,79.5,65.6,77.1,42.6,86.8,77.7,92.6,95.7,111,82.2,85.3,94.8,97.3,63.4,91.5,50.9
"Nc1ncn([C@H]2C[C@H](O)[C@@H](CO)O2)c(=O)n1 [decitabine] + c1cc(-c2cnn3cc(-c4ccc(OCCN5CCCCC5)cc4)cnc23)ccn1 [Dorsomorphin] (first compound 0.5 µM, partner dose 2 µM)",52.1,52.7,71.2,71,104,69.6,62.5,61.9,44.9,117,68.3,79.5,107,57.7,78.5,71.8,64.9,61.4,71.8,–
"Nc1ncn([C@H]2C[C@H](O)[C@@H](CO)O2)c(=O)n1 [decitabine] + COCC[n+]1c2c(n(Cc3cnccn3)c1C)C(=O)c1ccccc1C2=O [YM155] (first compound 0.5 µM, partner dose 0.002 µM)",66.3,35,37.5,27.2,37.4,73.5,26.6,27.9,26.2,65.7,65.6,46,81.2,29.7,19.5,50.7,53.5,39.3,39.1,86.7
"Nc1ncn([C@H]2C[C@H](O)[C@@H](CO)O2)c(=O)n1 [decitabine] + N#Cc1c(O)c2c(-c3ccc(-c4ccccc4O)cc3)csc2[nH]c1=O [A769662] (first compound 0.5 µM, partner dose 10 µM)",91.9,51,79.3,77.8,104,88.9,89.2,64.3,88.6,93.7,77.2,88,86.7,72,112,95.3,65.8,83.6,106,–
"Nc1nc(F)nc2c1ncn2[C@@H]1O[C@H](CO)[C@@H](O)[C@@H]1O [fludarabine] + NC(=O)Nc1cc(-c2cccc(F)c2)sc1C(=O)N[C@H]1CCCNC1 [AZD7762] (first compound 1 µM, partner dose 0.1 µM)",70,55.8,68.7,52.5,74.7,39.5,121,51.8,14.7,81.3,1.29,2.08,17.8,33,30.6,44,62.1,67.8,19.2,51.4
"Nc1ccn([C@@H]2O[C@H](CO)[C@@H](O)C2(F)F)c(=O)n1 [gemcitabine] + Clc1ccc(Nc2nnc(Cc3ccncc3)c3ccccc23)cc1 [vatalanib] (first compound 0.002 µM, partner dose 10 µM)",47.8,31.4,39.7,59,79.8,38.7,50.3,43.2,56.1,56.3,61.1,65.6,71.5,60.8,65.5,72.8,63.5,58.1,75.2,37.6
"CO[C@H]1C[C@@H]2CC[C@@H](C)[C@@](O)(O2)C(=O)C(=O)N2CCCC[C@H]2C(=O)O[C@H]([C@H](C)C[C@@H]2CC[C@@H](OCCO)[C@H](OC)C2)CC(=O)[C@H](C)/C=C(\C)[C@@H](O)[C@@H](OC)C(=O)[C@H](C)C[C@H](C)/C=C/C=C/C=C/1C [everolimus] + O=S(=O)(c1ccccc1)N(CC(F)(F)F)c1ccc(C(O)(C(F)(F)F)C(F)(F)F)cc1 [T0901317] (first compound 0.1 µM, partner dose 7 µM)",49.7,62.4,74.9,67.8,85.2,64.4,76.4,69.1,94.7,71.1,42.5,56.1,72.1,45.6,82.1,66.1,74.9,73.6,60.7,–
"Nc1ccn([C@@H]2O[C@H](CO)[C@@H](O)C2(F)F)c(=O)n1 [gemcitabine] + O=C(O)C(=O)Nc1sc2c(c1C(=O)O)CCNC2 [TCS401] (first compound 0.002 µM, partner dose 8.33333 µM)",42,51.6,46.9,72.9,74.8,59.2,79.5,44.4,71.5,70.1,79.6,80.8,110,66.1,97,108,72.2,91.6,73.4,–
"CC(=O)c1c(C)c2cnc(Nc3ccc(N4CCNCC4)cn3)nc2n(C2CCCC2)c1=O [palbociclib] + Cc1cc([N+](=O)[O-])ccc1NS(=O)(=O)c1cc(Cl)ccc1Cl [FH535] (first compound 0.2 µM, partner dose 5 µM)",35.9,41.8,51.3,54.5,61.9,51.7,51,44.5,51,56,31.1,50.2,60.6,35.7,56.7,60.9,49.3,34,48.9,–
"Nc1nc(F)nc2c1ncn2[C@@H]1O[C@H](CO)[C@@H](O)[C@@H]1O [fludarabine] + COc1ccc(COc2ccc(Cc3cnc(N)nc3N)cc2OC)cc1 [GW2580] (first compound 1 µM, partner dose 5 µM)",60.6,59.7,93.1,79.1,66.2,74.3,79,74.4,62,105,2.09,2.95,25.1,24.7,46.8,91.5,75,91.1,27.1,–
"CC(=O)c1c(C)c2cnc(Nc3ccc(N4CCNCC4)cn3)nc2n(C2CCCC2)c1=O [palbociclib] + N#Cc1c(O)c2c(-c3ccc(-c4ccccc4O)cc3)csc2[nH]c1=O [A769662] (first compound 0.2 µM, partner dose 10 µM)",61.5,80.7,69.8,74.8,67.8,69,63.8,54.4,51.9,58.5,59.9,64.7,73.2,55.5,75.5,71.6,57.2,43.2,50.4,–
"CO[C@H]1C[C@@H]2CC[C@@H](C)[C@@](O)(O2)C(=O)C(=O)N2CCCC[C@H]2C(=O)O[C@H]([C@H](C)C[C@@H]2CC[C@@H](OCCO)[C@H](OC)C2)CC(=O)[C@H](C)/C=C(\C)[C@@H](O)[C@@H](OC)C(=O)[C@H](C)C[C@H](C)/C=C/C=C/C=C/1C [everolimus] + CC(=O)c1c(C)c2cnc(Nc3ccc(N4CCNCC4)cn3)nc2n(C2CCCC2)c1=O [palbociclib] (first compound 0.1 µM, partner dose 0.2 µM)",50,52.6,66.3,56.1,58.6,66.2,82.5,55.6,93.4,99.8,29,50.1,51.9,63.2,85.9,59.1,65.3,43.3,49.6,93.9
"CC(=O)O[C@@]12CO[C@@H]1C[C@H](O)[C@@]1(C)C(=O)[C@H](O)C3=C(C)[C@@H](OC(=O)[C@H](O)[C@@H](NC(=O)OC(C)(C)C)c4ccccc4)C[C@@](O)([C@@H](OC(=O)c4ccccc4)[C@H]21)C3(C)C [Docetaxel] + Cn1cncc1[C@@](N)(c1ccc(Cl)cc1)c1ccc2c(c1)c(-c1cccc(Cl)c1)cc(=O)n2C [tipifarnib] (first compound 0.0005 µM, partner dose 0.05 µM)",13.9,36.6,40.1,41.6,52.2,46.6,45.1,21.7,21.6,43.4,15.9,21.6,42.7,27.3,56.9,49.6,31.7,31.6,31.1,32.2
"CO[C@H]1C[C@@H]2CC[C@@H](C)[C@@](O)(O2)C(=O)C(=O)N2CCCC[C@H]2C(=O)O[C@H]([C@H](C)C[C@@H]2CC[C@@H](OCCO)[C@H](OC)C2)CC(=O)[C@H](C)/C=C(\C)[C@@H](O)[C@@H](OC)C(=O)[C@H](C)C[C@H](C)/C=C/C=C/C=C/1C [everolimus] + COc1ccc2c(c1)CCC1C2CCC2(C)C(NCCCCCCN3C(=O)C=CC3=O)CCC12 [U73122] (first compound 0.1 µM, partner dose 2 µM)",46.5,77,76.9,69.8,70.2,63.3,82.9,32.6,27.9,50.6,47.9,62.5,63.9,52.2,92.5,55,65.7,72.1,71.5,–
